Test results reported in PubChem BioAssay AID686971 (National Center for Advancing Translational Sciences (NCATS), 2013).
Among all 360,000 compounds or so, about 7,500 (2.1%) were called active. The shares of active, inactive and inconclusive entries below differ from those in the screen. Calls follow the shape of the dose curve; as a rule, active = well fitted cell-killing curve with a large enough effect; inconclusive = small, poorly fitted or top-dose-only effect, or effect the other way, or another doubt; inactive = no such curve, though single readings can be large or run the other way. Potencies of inconclusive entries are left out as doubtful fits.

Experiment: qHTS for induction of synthetic lethality in tumor cells producing 2HG: qHTS for the HT-1080-IDH1KD cell line;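 as to activity, negative = toxicity: 0% = DMSO wells and -100% = cell-free medium wells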
Settings: HT-1080 IDH1 knockdown viability, ATP luminescence, 48 h; activity, negative = toxicity: at 46.1 µM (top of the series) unless noted
Procedure, shortened: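 In this qHTS, HT-1080 cells depleted of IDH1 are exposed for 48 h at 37 °C to compound titrations. Toxicity is scored from CellTiter-Glo luminescence, with DMSO as full viability and medium alone as none.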
Potency is read from the fitted curve at half-maximal effect; tags tell the direction and shape of the fitted curve.

| SMILES | activity, negative = toxicity | Potency |
| --- | --- | --- |
| CCOc1cccc(C(=O)NC(=S)Nc2ccc(N3CCCC3)cc2)c1 | inactive: 1.86% | – |
| Cc1cc(C)nc(SCc2nnc(SCC(=O)Nc3ccc(C)c(C)c3)o2)n1 | inactive: 7.36% | – |
| CCCn1c(=S)[nH]c2cc(C(=O)N3CCCC(C(=O)OCC)C3)ccc2c1=O (stereo not given) | – | inconclusive [cytotoxic, single point] |
| CCN(CC(=O)Nc1c(F)cccc1F)C(=O)CSCc1ccc(C)cc1 | inactive: 6.68% | – |
| CCc1ccc2c(c1)/C(=C/C(=O)c1cccs1)C(=O)N2 | – | inconclusive [cytotoxic, single point] |
| COC(=O)c1cc(NC(=O)COC(=O)C2CCC2)cc(C(=O)OC)c1 | inactive: -4.61% | – |
| O=[N+]([O-])c1ccc(-c2nc(Nc3cccc(O)c3)c3ccccc3n2)cc1 | – | inconclusive [cytotoxic, single point] |
| Cc1ccc(C2=Nc3c(ccc4ccccc34)C(c3ccncc3)=NN2)cc1 | – | inconclusive [cytotoxic, partial curve] |
| Cc1ccsc1C(=O)NNC(=O)C1CC=CCC1C(=O)O (stereo not given) | – | inconclusive [rising, partial curve] |
| COc1ccc(-c2ccc3c(c2)S(=O)(=O)c2cccc(C(=O)N4CCN(c5c(Cl)cncc5Cl)CC4)c2C3=O)cc1OC | inactive: -1.27% | – |
| Cc1cc(C(=O)N(CCC#N)Cc2cccs2)no1 | inactive: 30% | – |
| COc1ccc(CCCc2nnc(SCC(=O)Nc3cccc(C)c3)o2)cc1 | inconclusive: 9.17% | – |
| O=C(NCc1cc([N+](=O)[O-])ccc1O)c1cccnc1Sc1ccc(Cl)cc1 | – | inconclusive [cytotoxic, single point] |
| COc1ccc(/C=C2\N=C(SC)N(c3ccccc3OC)C2=O)cc1 | – | inconclusive [cytotoxic, partial curve] |
| O=S(=O)(NCc1ccccn1)c1cccc2nsnc12 | – | inconclusive [rising, partial curve] |
| Cc1ccc(Cn2c(=N)c(C(=O)NC3CCCCC3)cc3c(=O)n4ccccc4nc32)cc1 | inactive: 18.1% | – |
| CN(CCC#N)C(=O)COC(=O)c1ccccc1C(=O)c1ccc(Cl)c([N+](=O)[O-])c1 | – | active: 16.4 µM |
| C=CCOC(=O)C1=C(C)NC(=O)NC1c1cn(-c2ccccc2)nc1-c1cccs1 (stereo not given) | – | active: 10 µM |
| CC(C)C(=O)Nc1ccc(C(=O)N/N=C/c2cc(Br)cc(Br)c2O)cc1 | – | inconclusive [cytotoxic, full curve, poor fit] |
| COc1ccc(CN2C(=O)c3ccccc3C(/C=N\OCc3ccc(F)cc3)C2=O)cc1 (stereo not given) | inconclusive: -32.5% [cytotoxic] | – |
